Experimental data published in paper PMC6919601, “Identification of Plasmodium dipeptidyl aminopeptidase allosteric inhibitors by high throughput screening” (PLoS ONE, 2019).
Screen size: about 110,000 compounds; about 230 (0.21%) showed an effect of 50% or more. This is one part of the list.

These compounds were tested against DPAP1 (Plasmodium falciparum, UniProt Q8IIJ9) (assay: primary screen, percent inhibition; read by cleavage of a fluorogenic dipeptide substrate; higher = more effect of the substance).
Parameters: species or system P. falciparum D10 trophozoite lysates; single well
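Further: 30 min substrate incubation versus DMSO and 10 µM JCP410 controls.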

DPAP1, sequence (Q8IIJ9 whole entry, looked up): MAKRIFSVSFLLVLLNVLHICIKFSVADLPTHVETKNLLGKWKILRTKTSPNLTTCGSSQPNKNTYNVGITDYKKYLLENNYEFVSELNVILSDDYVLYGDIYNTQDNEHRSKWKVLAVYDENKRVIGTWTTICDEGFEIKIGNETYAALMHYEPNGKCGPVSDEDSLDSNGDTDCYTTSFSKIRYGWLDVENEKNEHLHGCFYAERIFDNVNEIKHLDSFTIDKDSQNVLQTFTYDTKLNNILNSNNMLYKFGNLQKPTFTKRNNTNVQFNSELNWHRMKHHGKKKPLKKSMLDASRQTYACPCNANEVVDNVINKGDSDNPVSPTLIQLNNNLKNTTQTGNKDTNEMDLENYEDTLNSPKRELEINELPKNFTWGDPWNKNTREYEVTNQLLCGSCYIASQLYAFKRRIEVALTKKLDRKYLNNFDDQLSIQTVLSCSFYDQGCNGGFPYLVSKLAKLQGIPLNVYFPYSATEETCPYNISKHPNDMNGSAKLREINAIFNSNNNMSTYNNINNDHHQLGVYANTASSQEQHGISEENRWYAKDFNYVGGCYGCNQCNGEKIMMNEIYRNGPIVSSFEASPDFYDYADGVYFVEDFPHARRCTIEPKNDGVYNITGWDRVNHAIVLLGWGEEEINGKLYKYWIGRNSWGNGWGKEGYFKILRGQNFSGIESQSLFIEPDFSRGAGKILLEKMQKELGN

SMILES | % Inhibition @ 10 uM [%]
Cc1ccnc(NC(=O)C2CCCCC2C(=O)O)c1 (stereo not drawn) | -2.9
COc1ccc2c(CNCc3ccc(C)o3)c(C(=O)O)n(Cc3cccc(F)c3)c2c1 | 4.63
Cc1cc2oc(=O)c(CC(=O)O)c(C)c2c2occ(-c3ccc(Cl)cc3)c12 | 0.558
O=S(=O)(NCCN1CCCCCC1)c1ccc2nc(O)ccc2c1 | 0.807
Cc1cccc(NC(=O)C(c2ccccc2)N2Cc3ccccc3C2=O)n1 (stereo not drawn) | -1.59
Cc1ccc(-n2nc(C)c3c(C)cc(=O)oc32)cc1 | -6.08
COc1ccc2[nH]c3c(=O)n(CCCC(=O)N4CC=C(c5ccccc5)CC4)c(=S)[nH]c3c2c1 | -2.19
O=C(O)CCCn1cc(NC(=O)c2ccc3c(c2)OCO3)cn1 | -0.403
CC(=O)c1cccc(NC(=O)Cn2c(-c3nonc3N)nc3ccccc32)c1 | 1.62
Cc1nc2ccc(NC(=S)NC3CC3)cc2nc1C | 2.16
C=CC[n+]1c(C=C2C=CN(C)C=C2)sc2ccccc21 | -6.71
Cn1c(=O)c(C(=O)Nc2nc(C3C4CC5CC(C4)CC3C5)cs2)c(O)c2ccccc21 (stereo not drawn) | -16.1
Cc1ccccc1OCc1nnc2c3cnn(C)c3ncn12 | -3.96
COc1ccc(CN2CCN(C(=O)c3cccnc3S)CC2)c(OC)c1OC | 21.2
CCOC(=O)c1c(NC(=O)COc2cccc(C(F)(F)F)c2)sc(C)c1C | 5.41
CCOC(=O)c1cc2c(s1)-c1ccccc1S(=O)(=O)C2 | 1.91
O=C1OCC/C1=C\c1ccccc1O | -0.0369
O=C(NCCn1ccc2ccccc21)C(=O)c1cn(CC(=O)N2CCCC2)c2ccccc12 | -4.18
COc1ccccc1C1SC(NC(C)=O)=NN1C(C)=O (stereo not drawn) | -0.053
COc1ccccc1OCCCc1c(C)n[nH]c1C | 1.9
COC(=O)C1=C(C)N(C)C(=O)/C1=C\c1cc(C)n(-c2ccc(Cl)cc2)c1C | 3.47
O=C(CN1CCN(Cc2ccccc2Cl)C1=O)NCCCN1CCOCC1 | 2.02
CCOC(=O)c1[nH]c(C)c(C(=O)N(CC)Cc2ccccc2)c1C | 1.72
CC1CC(C)CN(C(=O)Cn2ncc3c(Cl)cccc32)C1 (stereo not drawn) | 0.596
CCn1ncc(/C=C2\CCCC3=C2OC(N)=C(C#N)C3c2cnn(CC)c2C)c1C (stereo not drawn) | -1.98
O=C(COc1ccc(Cl)cc1Cl)Nc1ccc(S(=O)(=O)N2CCCCC2)cc1 | 2.55

SMILES | % Inhibition @ 10 uM [%]
O=C(Nc1cccc2cccnc12)c1ccco1 | 1.65
Cc1cc(C)c2c(n1)SCC(=O)N2CC(=O)N1CCN(C)CC1 | -4.15
COc1ccc(Br)cc1CNC(=O)c1cc2oc3ccccc3c2n1C | 0.0882
Cc1cc(OCC(=O)Nc2sc(C)c(C)c2C(N)=O)ccc1Br | 0.163
COc1ccc(NCc2ccc(N)cc2)cc1 | 4.16
CC(=O)C(C#N)NC(=O)[C@H](CC(C)C)NC(=O)OCc1ccccc1 (stereo partly drawn) | 0.173
C/C(=C\C(=O)NC(C)Cc1ccccc1)c1ccccc1 (stereo not drawn) | -3.86
Cc1ccc(S(=O)(=O)N(CC(O)CN2CCOCC2)c2cccc(C)c2)cc1 (stereo not drawn) | -2.05
COc1cccc(CNCc2c(C(=O)O)n(Cc3ccccc3F)c3ccccc23)c1OC | 0.896
Cc1ccc2c(=O)c(C(=O)c3ccccc3)cn(CC(=O)NCc3ccccc3Cl)c2n1 | 0.451
O=C(O)CCC(=O)Nc1ccccc1C#Cc1ccc(Br)cc1 | 0.829
COc1ccc(Cl)cc1NC(=O)c1ccoc1C | 3.53
CCOC(=O)N1CCN(S(=O)(=O)c2ccc3oc(=O)c4ncn(C)c4c3c2)CC1 | -8.5
O=C1/C(=C/c2ccccn2)CC(c2ccccc2)C/C1=C\c1ccccn1 (stereo not drawn) | 4.06
Cc1cc(Cl)ccc1NC(=O)CN(c1ccc2c(c1)OCCO2)S(=O)(=O)c1ccccc1 | -2.65
O=C(NCCCCc1ccccc1)c1ccc(-c2ccccc2)cc1 | -6.78
Cn1c(=O)c2c(ncn2CCCNC2=NCCC2)n(C)c1=O | -0.994
CCn1c(SC)nc2c(c1=O)C1(CCCCC1)Cc1ccccc1-2 | 1
COc1cc(CN2CCCN(C)CC2)cc(OC)c1O | -0.828
COc1ccccc1-n1nc(C)cc1NC(=O)NC(=O)c1ccc(C(F)(F)F)cc1 | -2.5
CC(Oc1ccccc1Cl)C(=O)N1CCOCC1 (stereo not drawn) | 0.83
CC(=O)Nc1ccc(NC(=O)c2scc3c2OCCO3)cc1 | 4.11
Cc1ccc2[nH]c3c(c2c1)CCCC3NCCCO (stereo not drawn) | 1.48
CC1CC(C)(C)OC(C(C)(C)CN(C)C)O1 (stereo not drawn) | 6.24
O=C1N/C(=C\c2ccc(O)cc2)C(=O)c2ccccc21 | 9.53
COCCCNC(=O)C1CCN(c2nc3c(C)cc(C)cc3s2)CC1 | 0.137

SMILES | % Inhibition @ 10 uM [%]
COc1ccc(Br)cc1/C=c1\sc2nc(-c3cccnc3)nn2c1=O | 0.222
COc1ccc2[nH]c3c(=O)n(CCC(=O)N4CCN(c5ccccn5)CC4)c(=S)[nH]c3c2c1 | -7.65
CCC1CCCCN1S(=O)(=O)c1ccc2nc(O)ccc2c1 (stereo not drawn) | -0.901
OC1(c2ccccc2)CC(c2ccccc2)Oc2ccccc21 (stereo not drawn) | 2.01
Cc1[nH]c2ccccc2c1CN1CCN(c2ccccc2)CC1 | -4.35
N#CCNC(=O)C(CCC1CCCCC1)NC(=O)c1ccccc1 (stereo not drawn) | 5.75
NC(=O)c1c(NC(=O)COc2ccc(Cl)cc2)sc2c1CCCCCC2 | -4.33
CN(C)CCNS(=O)(=O)c1ccc(-c2cc(C(F)(F)F)no2)s1 | 4.23
Cc1cccc(C(=O)Nc2ccccc2C#N)c1 | -1.89
O=C(NCCc1ccc(Cl)cc1)C1CCN(c2nnc(-n3cccc3)s2)CC1 | -4.04
C=CCOc1ccc(C(=O)C2=C(O)C(=O)N(c3ccccn3)C2c2ccc(F)cc2)cc1 (stereo not drawn) | 2.86
CCc1nnc(NC(=O)c2cccc(S(=O)(=O)N(CC)CC)c2)s1 | -6.46
CCOC(=O)C(/C=N/c1cc(-c2cccc(Br)c2)[nH]n1)=C(\O)OCC | -6.17
OCCCNc1nc(O)c2c(n1)-c1ccccc1CC21CCCCC1 | -2.15
Cc1ccc(Cn2c(=O)c3cccnc3n(Cc3ccc(C#N)cc3)c2=O)cc1 | -11.2
CC(=O)Nc1ccc(NC(=O)C2CCCCC2)cc1C | -0.756
CC(=O)c1ccc(NC(=O)Cn2nc(C(F)(F)F)cc2C2CC2)cc1 | -1.04
c1ccc2c(CN3CCOCC3)ccnc2c1 | 2.91
CC(Cc1c[nH]c2ccccc12)N1C(=O)C2CCCCC2C1=O (stereo not drawn) | 1.52
CCOc1ccc(Nc2nc(-c3c(C)nc4ccccn34)cs2)cc1 | 2.23
COc1ccc(C2NC(=O)C(C)S2)cc1 (stereo not drawn) | -3.79
COCCNC(=O)C1=CC(c2ccc(OC)cc2)=NS(=O)(=O)N1C | 0.444
CC1(c2ccccc2)CC(C)(C)N2C(=O)Cc3cccc1c32 (stereo not drawn) | -2.77
O=C1OC(c2cccs2)=N/C1=C/c1cccc2ccccc12 | 0.952
CC1CCN(S(=O)(=O)c2ccc(NC(=O)c3ccc4c(c3)OCO4)cc2)CC1 | -1.63
CCC(C)NC(=O)c1ccccc1-c1nc2ccccc2[nH]1 (stereo not drawn) | 23.4

SMILES | % Inhibition @ 10 uM [%]
COc1cc(C)cc2oc(=O)cc(C)c12 | 2.41
O=C(O)CC(NC(=O)c1ccncc1)c1ccccc1 (stereo not drawn) | 0.222
CCOc1ccccc1NC(=O)C1=C(C)NC(=O)NC1c1ccc(F)cc1 (stereo not drawn) | -5.69
CCc1nnc2c3c4c(sc3nc(CC)n12)CCCC4 | -8.12
CCCCCn1c(=O)c(C(=O)Nc2cccc(C)c2)c(O)c2ccccc21 | -2.88
CSc1nc(C)cc(Oc2ccc(=O)n(C)n2)n1 | -2.14
CNC(=O)CSc1cn(CC(=O)N2CCOCC2)c2ccccc12 | 4.8
CCn1cc(C(=O)N2CCC3(CC2)OCCO3)c2cc(OC)c(OC)cc2c1=O | -7.33
Cc1ccc(N2C(=O)NC(=O)/C(=C/Nc3ccc(S(=O)(=O)NCc4ccccc4)cc3)C2=O)cc1 | 2.45
COCCN1C(=O)c2oc3ccc(F)cc3c(=O)c2C1c1ccc(C(=O)OC)cc1 (stereo not drawn) | 0.628
CCc1ccc(CN2CCN(Cc3cccc(OC)c3OC)CC2)cc1 | -1.68
c1ccc(CCNc2nc3c(-c4ccccc4)nnn3c3ccccc23)cc1 | -6.52
CC1(C)Cc2ccccc2-c2nnc(C(F)(F)F)n21 | 3.01
O=C(C1CC1)N1CCN(Cc2ccccc2)CC1 | -7.63
CCSC(=O)N(CC)CC(=O)Nc1c(CC)cccc1CC | 1.92
CCCN(CCC)C(=O)c1cc(S(=O)(=O)N2CCOCC2)cn1C | 1.1
CCc1ccc(C2C(C#N)=C(N)Oc3c2c(O)nc2ccccc32)cc1 (stereo not drawn) | -0.446
O=C(COc1ccccc1)Nc1cccc2c1CCCC2 | 1.92
COc1ccc(S(=O)(=O)c2cnc3ccc(F)cc3c2O)cc1 | -0.22
Cc1ccc(S(=O)(=O)Cc2c(C)noc2C)cc1 | -1.61
CCOc1ccccc1NC(=O)C1CC(=O)N(c2ccc(CC)cc2)C1 (stereo not drawn) | -1.96
CNC(=O)C1=C(C)NC(=O)NC1c1ccccc1F (stereo not drawn) | -1.57
CNC(=O)CN(c1ccc(C)cc1)S(=O)(=O)c1ccc(OC)c(Br)c1 | -3.04
Cc1nnc(N2C(=O)C(O)=C(C(=O)c3ccc(F)cc3)C2c2cccc(Oc3ccccc3)c2)s1 (stereo not drawn) | 2.17
